# Measurements published in PubChem BioAssay AID1508642 (National Center for Advancing Translational Sciences (NCATS), 2021).
# The campaign covered roughly 43,000 compounds. About 200 (0.47%) were called active. About 12% were inconclusive and are not listed. The call rests on the fitted dose curve; in most records, active means well fitted cell-killing curve with a large enough effect; inconclusive means small, poorly fitted or top-dose-only effect, or effect the other way; inactive means flat fitted curve, though single readings scatter. The list shows a part of the results.
# Test: Cell viability qHTS assay in S16 Pmp22-F2sN cells; further: nearly all actives have a fitted effect of over 65% in size
# Conditions: S16 Pmp22-F2sN Schwann cells (luciferase reporters placed in the Pmp22 gene) viability, CellTiter-Glo, 24 h; series mostly up to 57.5 µM; activity change, negative = cytotoxicity: at the top concentration
# Outline: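 CellTiter-Glo counter-screen, qHTS, 1536-well. Cells: S16(c9) Pmp22-F2sN, 500-1,000/well in DMEM + 10% FBS. Cpd 23 nL pin transfer, 24 h, 37C/5% CO2. Read: luminescence, CCD imager.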
# On the % scale 0 is the no-effect control and ±100 the full control effect.
row,Compound,"activity change, negative = cytotoxicity"
1,Cc1ccc(C)c(N2CCN(C(=O)c3cc4c(=O)oc5ccccc5c4s3)CC2)c1,inactive: -4.47%
2,O=C(CSc1nc2ncccc2o1)Nc1cccc(C(F)(F)F)c1,inactive: 1.24%
3,Cc1cc2oc(C(=O)Nc3cccc(-c4nc5ccccc5o4)c3)c(C)c2cc1C,inactive: 16%
4,COc1ccc(-n2nc3cc(C)c(NC(=O)Cc4ccc(Cl)cc4)cc3n2)cc1,inactive: -15.9%
5,CCOc1ccc(NC(=O)CSc2nnc(CNC(=O)C34CC5CC(CC(C5)C3)C4)n2CC)cc1,inactive: 15.8%
6,CCOC(=O)c1ccccc1NC(=O)Nc1cc2c(cc1N1CCCC1)n(C)c(=O)n2C,inactive: -1.56%
7,COc1cc(C(=O)N(Cc2ccc(N(C)C)cc2)CC2CCCO2)cc(OC)c1OC (stereo not drawn),inactive: 5.1%
8,Cc1c(C(=O)N(C)C)sc2c1c(=O)n(-c1ccc(Cl)c(Cl)c1)c(=O)n2CC(=O)N1CCCCC1C (stereo not drawn),inactive: 1.15%
9,CCCC12CN3CC(CCC)(CN(C1)C3c1ccc(OC(C)C)cc1)C2=O (stereo not drawn),inactive: -3.81%
10,COc1cccc(Cn2c(C)c(CNC3CCCCC3)c(C(=O)O)c2C)c1,inactive: 6.95%
11,COc1ccc(-c2noc(-c3ccc(N4CCN(c5ccccc5OC)CC4)c([N+](=O)[O-])c3)n2)cc1,inactive: 0.881%
12,O=C(CSc1nc(=O)n(Cc2ccncc2)c2c1CCC2)Nc1ccc(F)cc1F,inactive: 7.05%
13,CCCN1CN=C(NS(=O)(=O)c2ccc(NC(C)=O)cc2)NC1,inactive: 3.3%
14,CC(Oc1ccccc1)C(=O)Nc1ccccc1C(=O)OCc1cc(=O)n2nc(C(C)C)sc2n1 (stereo not drawn),inactive: -5.1%
15,CCc1ccc(NC(=O)CSc2nc(-c3cccc(OC)c3)nc3c2Cc2c(CO)cnc(C)c2O3)cc1,inactive: 9.02%
16,CCn1c(=O)c(=O)n(CC)c2cc(N3CCCCC3)c(NC(=O)c3ccccc3OC)cc21,inactive: 1.55%
17,CCOc1ccc(-c2nc(CSCC(=O)NCCc3ccc(OCC)c(OCC)c3)c(C)o2)cc1,inactive: -11.8%
18,COc1ccccc1-c1c(C)nn2c(N3CCN(c4ccccc4)CC3)cc(C)nc12,inactive: -2.63%
19,CCCN1CCN(CC2=C(C(=O)OCC)C(c3ccc(OC(C)C)cc3)NC(=O)N2)CC1 (stereo not drawn),inactive: -23.6%
20,O=C(Nc1ccc2nc(SCC(=O)N3CCOCC3)sc2c1)c1ccc(Br)cc1,inactive: 0.713%
21,CCC(C)NC(=O)CSc1c2c(nc3cc(Cl)ccc13)CCCC2 (stereo not drawn),inactive: 4.09%
22,C=Cc1ccc(Cn2c(C(=O)O)c(CNC3CCCCC3)c3ccc(OC)cc32)cc1,inactive: -0.205%
23,CCCOC1(C(F)(F)F)NC(=O)N(c2cccc(Cl)c2)C1=O (stereo not drawn),inactive: 2.41%
24,COc1cccc(CNC(=O)C(=O)NCC(c2ccc3c(c2)OCO3)N2CCOCC2)c1 (stereo not drawn),inactive: -22.4%

row,Compound,"activity change, negative = cytotoxicity"
1,COc1ccc(OC)c(CNC(=O)CN2N=C(c3ccc(Cl)cc3)CCC2=O)c1,inactive: 11.2%
2,Cc1ccc(-c2nnn(CC(=O)N(CC(=O)NCCC(C)C)c3ccc(F)cc3)n2)cc1,inactive: -3.43%
3,COc1ccccc1N1CCN(S(=O)(=O)c2cc(-c3cc(C)no3)ccc2C)CC1,inactive: 0.0784%
4,COc1cccc(CN2C(=O)C3(SCC(=O)N3c3cc(C)cc(C)c3)c3ccccc32)c1 (stereo not drawn),inactive: -0.57%
5,O=C(c1ccc2c(c1)OCCO2)N(Cc1cccnc1)c1nc2ccc(Cl)cc2s1,inactive: 4.27%
6,O=C(NCCc1ccc(F)cc1)C(=O)NCC(c1ccc2c(c1)OCO2)N1CCOCC1 (stereo not drawn),inactive: 9.09%
7,Cc1ccc2nc(-c3c[nH]c4ccccc34)c(Nc3ccccc3)n2c1,inactive: -2.22%
8,Cc1coc2c1c(C)cc1oc(=O)c(CC(=O)NCc3ccc(Cl)cc3)c(C)c12,inactive: 10.1%
9,Cc1ccc(C(C)C)c(OCC(=O)Nc2nc3c(s2)CCCC3)c1,inactive: 1.33%
10,CCCCCOC(=O)c1ccc(Nc2nc(C(=O)OCC)nc3ccccc23)cc1,inactive: 29.2%
11,COc1ccccc1Oc1nc2c(C)cccn2c(=O)c1/C=C(\C#N)c1nc2ccccc2[nH]1,inactive: -1.32%
12,Cc1nn(CC(=O)NCc2cccc(F)c2)c(=O)c2c(C)n(-c3ccc(Cl)cc3)nc12,inactive: -3.18%
13,Cc1ccc(CCNC(=O)c2cc3sccc3n2Cc2ccc(Cl)cc2)cc1,inactive: 9.17%
14,COc1ccc2nc(N(Cc3cccnc3)C(=O)c3ccco3)sc2c1,inactive: -22.1%
15,COc1ccc(-n2cc(C(=O)NCc3ccc(Cl)cc3)c3ccccc3c2=O)cc1,inactive: 28.2%
16,Cc1ccc2c(c1)c1c(c(=O)n(-c3ccccc3)c(=O)n1CC(=O)NCCC1=CCCCC1)n2C,inactive: 11.7%
17,COc1ccc(N(C(=O)c2ccccc2C)S(=O)(=O)c2ccc(C)cc2)cc1,inactive: -17.9%
18,CC1CN(C(=O)CCC(=O)NCc2cccs2)c2cc(Cl)ccc2O1 (stereo not drawn),inactive: 1.47%
19,CCOC(=O)C1=C(CN2CCN(c3cc(C)ccc3C)CC2)NC(=O)NC1c1ccccc1 (stereo not drawn),inactive: -8.66%
20,Cc1cc(C)c(S(=O)(=O)NCC(c2ccc(N(C)C)cc2)N2CCc3ccccc32)c(C)c1 (stereo not drawn),inactive: 0.973%
21,COc1ccc(CNC(=O)Cc2coc3ccc(C(C)C)cc23)cc1,inactive: -5.18%
22,O=C(CN1C(=O)COc2ccc(S(=O)(=O)N3CCCCC3)cc21)NCc1ccccc1Cl,inactive: -5.47%
23,Cc1ccc(C)c(CN2C(=O)c3ccccc3S(=O)(=O)c3ccc(C(=O)N4CCN(C)CC4)cc32)c1,inactive: -0.915%
24,Cc1cc(Nc2cc(Cl)ccc2C)n2nc(Cc3ccccc3)nc2n1,inactive: 8.25%
